According to paper PMC5862564:
Some entries of the source have several records that differ or are many. They are shown here; other results are not. There may be further records. The values listed for one entry read as repeated measurements on other runs, samples or individuals; one of them may be the mean.

Biological target: SKAP2 homo-dimer of HaloTag-SKAP2 and hemi-luciferase-fused SKAP2 (human) (UniProt O75563)
Assay: pull-down + split reporter (BiFC, NanoBiT); HaloTag-fused hook captured from HEK293T lysate on HaloLink resin, 6 washes with PBS 0.1% Tween; luminescence of the co-expressed GPCA pair on the resin; ratio of cells with the HaloTag vector to cells with the pCNeo vector expressing the same protein

Chain of UniProt O75563 (O75563 whole entry, chain 1 of 2, the tested form may be a part): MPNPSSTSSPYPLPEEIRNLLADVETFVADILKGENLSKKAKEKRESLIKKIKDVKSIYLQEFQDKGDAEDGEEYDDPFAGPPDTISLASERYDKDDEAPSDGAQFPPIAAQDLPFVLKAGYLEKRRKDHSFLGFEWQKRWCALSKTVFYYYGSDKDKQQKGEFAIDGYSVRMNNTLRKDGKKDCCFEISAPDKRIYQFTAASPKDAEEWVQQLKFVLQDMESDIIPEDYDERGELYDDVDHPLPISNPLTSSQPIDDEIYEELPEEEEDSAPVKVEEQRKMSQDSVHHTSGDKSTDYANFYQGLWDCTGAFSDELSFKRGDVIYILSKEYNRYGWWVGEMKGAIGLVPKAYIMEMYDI
Chain of UniProt O75563 (O75563 whole entry, chain 2 of 2, the tested form may be a part): as the sequence (O75563 whole entry, chain 1 of 2, the tested form may be a part) above

- luminescence ratio (HaloTag vector to pCNeo control): 1.33, 8.63, 1.05 [columns of one line]
Substance: FYB fused N-terminally to Gaussia princeps luciferase fragment 1 (from UniProt O15117-3 1-839) (natural protein)
